As a reminder, the % Inhibition is the change of the read-out against control, counted positive when it falls.

Out of some 150,000 compounds screened, about 540 (0.36%) showed an effect of 50% or more. This is one part of the list.

The test system of the experiment is Plasmodium falciparum. The experiment in a line: Primary screen in NF54 nanoGlo assay, in single point, at 2uM, 72h; a lower Z score goes with more inhibition. It is filed as functional, Erythrocyte. To be noted: timepoint 72 hour.
For the compound `O=C(CCc1cccnc1)NC1(c2nccs2)CCCC1`, the “% Inhibition” value is listed as -2% and the Z score amounted to 0.3.
The matching figures for `CCCn1c(C)c(C)c(S(=O)(=O)c2ccccc2)c1NC(=O)CC`: -1% and 0.12.
The matching figures for `O=C(O)Cc1sc(-c2ccccc2)nc1O`: 37% and -0.89.
The matching figures for `Cc1nc[nH]c1CNCCCc1ccccc1F`: -1% and 0.2.
As to `Cc1ccsc1S(=O)(=O)N[C@@H](CC(C)C)C(=O)O`, the “% Inhibition” value is -3% and the Z score is listed as 0.29.
The matching figures for `Cc1ccc(C(=O)CN2C3=NCCCCN3c3ccccc32)cc1`: -2% and 0.27.
For `OC1CC(CCNCc2ccc(C#Cc3cn[nH]c3)cc2)C1` (stereo unspecified) the same measures were 4% and -0.7.
The matching figures for `CCCn1cc(-c2ccncc2)cc1C(=O)N1CCN(C)CC1`: -2% and 0.28.
For the compound `Cc1nnc2c(N3CCC(NC(=O)c4c(F)cccc4Cl)CC3)nccn12`, the “% Inhibition” value was found to be 5% and the Z score is reported as -0.74.
Turning to `Cc1ccccc1C(=O)N1[C@H](C(=O)NCC(C)C)COC12CCN(C(=O)c1cccs1)CC2`, the “% Inhibition” value is on record as -4% and the Z score is reported as 0.75.
For `COc1ccc(NC(=O)CC2(N3Cc4ccccc4C3=O)CCOCC2)cc1` the same measures were -3% and 0.38.
For `Fc1ccc([C@@H]2CCN2CCc2ccccn2)cc1` the same measures were 4% and -0.79.
For `CC(C)c1nc([C@H](C)NC(=O)c2ccnc(N(C)C)c2)cs1` the same measures were -8% and 1.07.
For `CCOC(=O)c1cccnc1NCc1ncccc1F`, the “% Inhibition” value amounted to 3% and the Z score was -0.52.
For `CC1(C)C(=O)NCCN1C(=O)NC1CCCCC1` the same measures were -6% and 0.9.
For `COc1ccc(OC)c2[nH]c(C(=O)N(C)C[C@@H]3CCCN4CCCC[C@H]34)cc12` the same measures were 3% and -0.41.
The matching figures for `C[C@@H](c1ccc(Cl)cc1)N(C(=O)Cn1cc(C(=O)O)cn1)C1CC1`: -23% and 2.73.
Take `CNC(=O)C1CCCC1Nc1ccn2c(C(=O)OC)cnc2n1` (stereo unspecified): the “% Inhibition” value was -1% and the Z score worked out at 0.15.
For `Cc1cc(NCc2csc(C3CC3)n2)ccc1C(F)(F)F` the same measures were -4% and 0.53.
The matching figures for `O=C(NCc1ccc(F)cc1)c1cc2n(n1)CCN(Cc1ccc(Cl)cc1)C2=O`: -18% and 3.45.
For `O=C(NCC1CC1)[C@]1(F)CCCN(Cc2cccnc2)C1` the same measures were -1% and 0.23.
With `Cc1ccncc1Cc1nc(-c2ccc(S(=O)(=O)NCC(C)C)cc2)no1`, the “% Inhibition” value turned out to be 4% and the Z score is on record as -0.8.
The matching figures for `O=S(=O)(Nc1cnc(C2CC2)nc1)c1c(F)cccc1Cl`: -9% and 1.77.
For `CC1CC(NC(=O)c2cncn2-c2ccc(-c3ccc(F)c(F)c3)cc2)CC(C)(C)C1` (stereo unspecified) the same measures were -14% and 1.8.
The matching figures for `CC1=C(C(=O)Nc2cccc([C@@H]3CNC(=O)C3)c2)CCC1`: -13% and 1.08.
With `C[C@@H](NC(=O)c1cccc(F)c1)C(=O)NCc1cscn1`, the “% Inhibition” value came to 3% and the Z score is recorded as -0.34.
Take `O=C(Nc1ccnn1C1CCCCC1)c1ccoc1`: the “% Inhibition” value amounted to 0% and the Z score is -0.03.
For `Cc1c(CN(C)c2nc3c(c(=O)[nH]2)Cc2ccccc2OC3)cnn1C` the same measures were -1% and 0.1.
For `COc1ccc(NC(=O)Cn2cnc3c(-c4ccccc4)nsc3c2=O)cc1Cl` the same measures were -7% and 1.22.
On to `COc1c(NC(=O)Nc2cc(-c3ccccc3)ns2)c(C)nn1C`, for which the “% Inhibition” value is given as -4% and the Z score is recorded as 0.43.
The matching figures for `O=C(N[C@H]1CCS(=O)(=O)C1)c1cc(N2CCCC2)ncn1`: -5% and 0.93.
For `COc1ccccc1C1(CNC(=O)COc2ccccc2)CCOCC1` the same measures were -10% and 1.39.
The matching figures for `COCCNC(=O)[C@H]1O[C@H](CCN2CCN(c3ccccc3)CC2)CC[C@@H]1O`: 17% and -1.98.
Turning to `Cc1ccc(-n2nc(C(=O)N3CCN(C)CC3)c(=O)n(Cc3ccccc3)c2=O)cc1C`, the “% Inhibition” value was -10% and the Z score was found to be 0.91.
The matching figures for `CCOc1c(Br)cc(/C=C(/NC(C)=O)C(=O)O)cc1Br`: 36% and -1.3.
The matching figures for `S=c1oc2cc(Cl)ccc2n1CN1CCN(c2ccccn2)CC1`: -5% and 0.89.
The matching figures for `C[C@H]1OCCN(Cc2ccc3c(c2)CCO3)[C@@H]1C(N)=O`: -14% and 1.21.
For the compound `CC[C@H]1CN(S(=O)(=O)c2ccc3c(c2)OCCO3)CCO1`, the “% Inhibition” value is recorded as -11% and the Z score amounted to 1.03.
For the compound `CCc1nn(C)cc1CN1CCn2cccc2[C@@H]1CC`, the “% Inhibition” value is -7% and the Z score is on record as 0.69.
Regarding `O=C(NCCn1ccnc1)c1cc(=O)c(OCc2ccccc2)c[nH]1`, the “% Inhibition” value is recorded as 0% and the Z score is listed as -0.03.
For `O=C(CN1CCC(Cn2c(COc3ccccc3)nc3ccccc32)CC1)Nc1nncs1` the same measures were 13% and -1.47.
The matching figures for `CC(C)c1ccnc(N[C@H](C(=O)N(C)C)C(C)C)n1`: -31% and 2.77.
On to `CCN1CCN(C(=O)NC2CC(C)(F)C2)CC1=O` (stereo unspecified), for which the “% Inhibition” value was determined as 6% and the Z score is -0.81.
